Results as given in patent publication US4389342A, “Synthetic hormone-like peptides and method for their synthesis” (Perignon Investments, Ltd., priority 1981, dated 1983).
Not every detail of the peptide structures is certain; ends, links or a residue may be inferred. Where a SMILES comes first, the peptide text is derived from it. Where no end group is shown, it is not given here. [ ]: non-standard residue; d: D form. pGlu = O=C1CC[C@@H](C(=O)O)N1

Tested on: Chinese hamster ovary cells (CHO)
Test: Effect of the peptide on DNA-synthesis (thymidine incorporation) in CHO cells
Assay type: cell-based
Settings: relative to the peptide isolated and purified from estivating lungfish

| Compound | Activity on DNA Synthesis (% of activity of natural product) | Activity on DNA Synthesis (% of activity of natural product) (listed as 1) |
| --- | --- | --- |
| CC(C)[C@H](NC(=O)[C@H](CCCNC(=N)N)NC(=O)[C@@H]1CCC(=O)N1)C(=O)N[C@@H](CCCCN)C(=O)N[C@@H](CCC(N)=O)C(=O)O [Run 16] ([pGlu]RVKQ-OH) | 50% | – |
| FRVKQVGSSPN [Run 29] | 40% | – |
| CC(C)[C@H](NC(=O)[C@H](CCC(N)=O)NC(=O)[C@H](CCCCN)NC(=O)[C@@H](NC(=O)[C@H](CCCNC(=N)N)NC(=O)[C@@H]1CCC(=O)N1)C(C)C)C(=O)NCC(=O)N[C@@H](CO)C(=O)N[C@@H](CO)C(=O)N1CCC[C@H]1C(=O)N[C@@H](CC(N)=O)C(=O)O [Run 11] ([pGlu]RVKQVGSSPN-OH) | 50% | – |
| FRVKQVGSSPQ [Run 20] | 40% | – |
| QVGSSPQ [Run 65] | 0% | – |
| SRVKQVGSSPQG [Run 44] | < 10% | – |
| YRVKQVGFSPQ [Run 35] | 30% | – |
| CC(C)[C@H](NC(=O)[C@H](CCCNC(=N)N)NC(=O)[C@@H]1CCC(=O)N1)C(=O)N[C@@H](Cc1ccc(O)cc1)C(=O)O [Run 62] ([pGlu]RVY-OH) | < 10% | – |
| SRVKQVGSSPQ [Run 43, Ser--Arg--Val--Lys--Gln--Val--Gly--Ser--Ser--Pro--Gln--] | – | 110% |
| CC(C)[C@H](NC(=O)[C@H](CCC(N)=O)NC(=O)[C@H](CCCCN)NC(=O)[C@@H](NC(=O)[C@H](CCCNC(=N)N)NC(=O)[C@@H]1CCC(=O)N1)C(C)C)C(=O)NCC(=O)N[C@@H](Cc1ccccc1)C(=O)N[C@@H](CO)C(=O)N1CCC[C@H]1C(=O)N[C@@H](CCC(N)=O)C(=O)O [Run 9] ([pGlu]RVKQVGFSPQ-OH) | 50% | – |
| FRVKQVGYSPQ [Run 21] | 40% | – |
| CC(C)[C@H](NC(=O)[C@H](CCC(N)=O)NC(=O)[C@H](CCCCN)NC(=O)[C@@H](NC(=O)[C@H](CCCNC(=N)N)NC(=O)[C@@H]1CCC(=O)N1)C(C)C)C(=O)NCC(=O)N[C@@H](CO)C(=O)N[C@@H](CO)C(=O)N1CCC[C@H]1C(=O)N[C@@H](CCC(N)=O)C(=O)O [Run 7] ([pGlu]RVKQVGSSPQ-OH) | 50% | – |
| YRVKQVGPSPQ [Run 36] | 30% | – |
| CC(C)[C@H](NC(=O)[C@H](CCCNC(=N)N)NC(=O)[C@@H](N)Cc1c[nH]c2ccccc12)C(=O)N[C@@H](Cc1ccc(O)cc1)C(=O)O [Run 63] (H-WRVY-OH) | 0% | – |
| CC(C)[C@H](NC(=O)[C@H](CCC(N)=O)NC(=O)[C@H](CCCCN)NC(=O)[C@@H](NC(=O)[C@H](CCCNC(=N)N)NC(=O)[C@@H]1CCC(=O)N1)C(C)C)C(=O)NCC(=O)N[C@@H](CO)C(=O)N[C@@H](CO)C(=O)N1CCC[C@H]1C(=O)O [Run 6] ([pGlu]RVKQVGSSP-OH) | 90% | – |
| CC(C)[C@H](NC(=O)[C@H](CCCNC(=N)N)NC(=O)[C@@H]1CCC(=O)N1)C(=O)N[C@@H](CCCCN)C(=O)O [Run 17] ([pGlu]RVK-OH) | 50% | – |
| YRVKQVGSSPN [Run 38] | 30% | – |
| WRVPQVGSSPQ [Run 57] | < 10% | – |
| CC(C)[C@H](NC(=O)[C@H](CCCNC(=N)N)NC(=O)[C@@H](N)Cc1ccccc1)C(=O)N[C@@H](CCCCN)C(=O)O [Run 60] (H-FRVK-OH) | < 10% | – |
| YRVKQVGSFPQ [Run 40] | 25% | – |
| NC(=O)CC[C@H](NC(=O)[C@@H]1CCCN1C(=O)[C@H](CO)NC(=O)[C@@H](N)CO)C(=O)O [Run 66] (H-SSPQ-OH) | 0% | – |
| CC(C)[C@H](NC(=O)[C@H](CCC(N)=O)NC(=O)[C@H](CCCCN)NC(=O)[C@@H](NC(=O)[C@H](CCCNC(=N)N)NC(=O)[C@@H]1CCC(=O)N1)C(C)C)C(=O)NCC(=O)O [Run 15] ([pGlu]RVKQVG-OH) | 50% | – |
| CC(C)[C@H](NC(=O)[C@H](CCC(N)=O)NC(=O)[C@H](CCCCN)NC(=O)[C@@H](NC(=O)[C@H](CCCNC(=N)N)NC(=O)[C@@H]1CCC(=O)N1)C(C)C)C(=O)NCC(=O)N[C@@H](CO)C(=O)N[C@@H](CO)C(=O)N1CCC[C@H]1C(=O)N[C@@H](CCC(N)=O)C(N)=O [Run 4] ([pGlu]RVKQVGSSPQ-NH2) | 90% | – |
| YRVKQVGSSP-NH2 [Run 19] | 40% | – |
| YRVPQVGSSPQ [Run 41] | 20% | – |
| YRVSQVGSKPQ [Run 51] | < 10% | – |
| SRVSQVGSKPQ [Run 64] | 0% | – |

| Compound | Activity on DNA Synthesis (% of activity of natural product) | Activity on DNA Synthesis (% of activity of natural product) (listed as 1) |
| --- | --- | --- |
| SRVKQVGSSPQGD [Run 45] | < 10% | – |
| CC(C)[C@H](NC(=O)[C@H](CCC(N)=O)NC(=O)[C@H](CCCCN)NC(=O)[C@@H](NC(=O)[C@H](CCCNC(=N)N)NC(=O)[C@@H]1CCC(=O)N1)C(C)C)C(=O)NCC(=O)N[C@@H](CO)C(=O)O [Run 14] ([pGlu]RVKQVGS-OH) | 50% | – |
| WRVKQVGSSPQ [Run 54] | < 10% | – |
| YRVKQVGHSPQ [Run 42] | 20% | – |
| CC(C)[C@H](NC(=O)[C@H](CCC(N)=O)NC(=O)[C@H](CCCCN)NC(=O)[C@@H](NC(=O)[C@H](CCCNC(=N)N)NC(=O)[C@@H]1CCC(=O)N1)C(C)C)C(=O)NCC(=O)N[C@@H](CO)C(=O)N[C@@H](CO)C(=O)O [Run 13] ([pGlu]RVKQVGSS-OH) | 50% | – |
| CC(C)[C@H](NC(=O)[C@H](CCC(N)=O)NC(=O)[C@H](CCCCN)NC(=O)[C@@H](NC(=O)[C@H](CCCNC(=N)N)NC(=O)[C@@H]1CCC(=O)N1)C(C)C)C(=O)NCC(=O)N[C@@H](CO)C(=O)N1CCC[C@H]1C(=O)N1CCC[C@H]1C(=O)N[C@@H](CCC(N)=O)C(=O)O [Run 49] ([pGlu]RVKQVGSPPQ-OH) | < 10% | – |
| FRVKQVGSFPQ [Run 27] | 40% | – |
| CC(C)[C@H](NC(=O)[C@H](CCC(N)=O)NC(=O)[C@H](CCCCN)NC(=O)[C@@H](NC(=O)[C@H](CCCNC(=N)N)NC(=O)[C@@H]1CCC(=O)N1)C(C)C)C(=O)NCC(=O)N[C@@H](CO)C(=O)N[C@@H](Cc1ccccc1)C(=O)N1CCC[C@H]1C(=O)N[C@@H](CCC(N)=O)C(=O)O [Run 18] ([pGlu]RVKQVGSFPQ-OH) | 40% | – |
| CC(C)[C@H](NC(=O)[C@H](CCC(N)=O)NC(=O)[C@H](Cc1ccccc1)NC(=O)[C@@H](NC(=O)[C@H](CCCNC(=N)N)NC(=O)[C@@H]1CCC(=O)N1)C(C)C)C(=O)NCC(=O)N[C@@H](CO)C(=O)N[C@@H](CO)C(=O)N1CCC[C@H]1C(=O)N[C@@H](CCC(N)=O)C(=O)O [Run 3] ([pGlu]RVFQVGSSPQ-OH) | 100% | – |
| CC(C)[C@H](NC(=O)[C@H](CCC(N)=O)NC(=O)[C@H](CCCCN)NC(=O)[C@@H](NC(=O)[C@H](CCCNC(=N)N)NC(=O)[C@@H]1CCC(=O)N1)C(C)C)C(=O)NCC(=O)N[C@@H](CO)C(=O)N[C@@H](Cc1c[nH]cn1)C(=O)N1CCC[C@H]1C(=O)N[C@@H](CCC(N)=O)C(=O)O [Run 50] ([pGlu]RVKQVGSHPQ-OH) | < 10% | – |
| FRVKQVGHSPQ [Run 24] | 40% | – |
| CC(C)[C@H](NC(=O)[C@H](CCC(N)=O)NC(=O)[C@H](CCCCN)NC(=O)[C@@H](NC(=O)[C@H](CCCNC(=N)N)NC(=O)[C@@H]1CCC(=O)N1)C(C)C)C(=O)O [Run 30] ([pGlu]RVKQV-OH) | 40% | – |
| CC(C)[C@H](NC(=O)[C@H](CCC(N)=O)NC(=O)[C@H](CCCCN)NC(=O)[C@@H](NC(=O)[C@H](CCCNC(=N)N)NC(=O)[C@@H]1CCC(=O)N1)C(C)C)C(=O)NCC(=O)N[C@@H](Cc1ccc(O)cc1)C(=O)N[C@@H](CO)C(=O)N1CCC[C@H]1C(=O)N[C@@H](CCC(N)=O)C(=O)O [Run 8] ([pGlu]RVKQVGYSPQ-OH) | 50% | – |
| FRVKQVGPSPQ [Run 23] | 40% | – |
| YRVKQVGYSPQ [Run 34] | 30% | – |
| CC(C)[C@H](NC(=O)[C@H](CCC(N)=O)NC(=O)[C@H](Cc1ccc(O)cc1)NC(=O)[C@@H](NC(=O)[C@H](CCCNC(=N)N)NC(=O)[C@@H]1CCC(=O)N1)C(C)C)C(=O)NCC(=O)N[C@@H](CO)C(=O)N[C@@H](CO)C(=O)N1CCC[C@H]1C(=O)N[C@@H](CCC(N)=O)C(=O)O [Run 2] ([pGlu]RVYQVGSSPQ-OH) | 100% | – |
| YRVKQVGSHPQ [Run 37] | 30% | – |
| FRVKQVGFSPQ [Run 22] | 40% | – |
| FRVKQVGSYPQ [Run 26] | 40% | – |
| SRVKQVGSSPQ [Run 43] | < 10% | – |
| WRVFQVGSSPQ [Run 56] | < 10% | – |
| CC(C)[C@H](NC(=O)[C@H](CCC(N)=O)NC(=O)[C@@H]1CCCN1C(=O)[C@@H](NC(=O)[C@H](CCCNC(=N)N)NC(=O)[C@@H]1CCC(=O)N1)C(C)C)C(=O)NCC(=O)N[C@@H](CO)C(=O)N[C@@H](CO)C(=O)N1CCC[C@H]1C(=O)N[C@@H](CCC(N)=O)C(=O)O [Run 47] ([pGlu]RVPQVGSSPQ-OH) | < 10% | – |
| WRVKQVGSSP-NH2 [Run 58] | < 10% | – |
| YRVYQVGSSPQ [Run 52] | < 10% | – |
| YRVFQVGSSPQ [Run 53] | < 10% | – |
| YRVKQVGSYPQ [Run 39] | 25% | – |
| CC(C)[C@H](NC(=O)[C@H](CCC(N)=O)NC(=O)[C@@H]1CCCN1C(=O)[C@@H](NC(=O)[C@H](CCCNC(=N)N)NC(=O)[C@@H]1CCC(=O)N1)C(C)C)C(=O)NCC(=O)N1CCC[C@H]1C(=O)N[C@@H](CO)C(=O)N1CCC[C@H]1C(=O)N[C@@H](CCC(N)=O)C(=O)O [Run 48] ([pGlu]RVPQVGPSPQ-OH) | < 10% | – |
